The inconclusive results got no clear call from the source; some entries with a clear call stand among them for comparison. Potencies of inconclusive entries are left out as doubtful fits. The source made the active and inactive calls. The call rests on the fitted dose curve; in most records, active means well fitted curve in the direction sought with a large enough effect; inconclusive means small, poorly fitted or top-dose-only effect, or another doubt; inactive means no such curve, though single readings can be large; an effect the other way counts as inactive or inconclusive.
Columns and labels:
[1] = target: Rap guanine nucleotide exchange factor 3 (Homo sapiens) (UniProt O95398); experiment: Confirmatory qHTS for antagonist of cAMP-regulated guanine nucleotide exchange factor 3 (EPAC1) (AID 1645880); details: EPAC1 Rap1B-BODIPY-GDP exchange, fluorescence; activity, negative = inhibition: at 115 µM (top of the series); further: nearly all actives have a fitted effect of over 55% in size;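 on activity, negative = inhibition: plate controls were DMSO only for no effect and full effect of the ATA control for full effect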
In short: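 Nucleotide exchange uses 100 nM EPAC1, 250 nM RAP1B-BODIPY-GDP and 50 uM GDP, with compounds in a concentration-titration series. After 5 min at room temperature, fluorescence (480 nm ex/540 nm em) is read every 5 min for 30 min. Data are normalized to control ATA and DMSO.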

[2] = target: Rap guanine nucleotide exchange factor 3 (Homo sapiens) (UniProt O95398); experiment: Counterscreen qHTS for agonist of cAMP-regulated guanine nucleotide exchange factor 3 (EPAC1) (AID 1645889); details: EPAC1 Rap1B-BODIPY-GDP exchange, fluorescence; activation: at 154 µM (top of the series) unless noted; further: nearly all actives have a fitted effect of over 40% in size; on activation: % of control where 0% means no effect
In short: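 Rap1B-BODIPY-GDP 250 nM + GDP 50 uM; cpds 7-pt, final 9.74 nM–152 uM (activator mode) or from 7.32 nM upwards (inhibitor mode); RT; FI 480/540 nm at 5 and 30 min, then ± cAMP, reread.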
Potency means the concentration at half of the fitted maximal effect; tags describe the fitted curve by direction and shape.

Sequence of UniProt O95398 (O95398 whole entry, looked up): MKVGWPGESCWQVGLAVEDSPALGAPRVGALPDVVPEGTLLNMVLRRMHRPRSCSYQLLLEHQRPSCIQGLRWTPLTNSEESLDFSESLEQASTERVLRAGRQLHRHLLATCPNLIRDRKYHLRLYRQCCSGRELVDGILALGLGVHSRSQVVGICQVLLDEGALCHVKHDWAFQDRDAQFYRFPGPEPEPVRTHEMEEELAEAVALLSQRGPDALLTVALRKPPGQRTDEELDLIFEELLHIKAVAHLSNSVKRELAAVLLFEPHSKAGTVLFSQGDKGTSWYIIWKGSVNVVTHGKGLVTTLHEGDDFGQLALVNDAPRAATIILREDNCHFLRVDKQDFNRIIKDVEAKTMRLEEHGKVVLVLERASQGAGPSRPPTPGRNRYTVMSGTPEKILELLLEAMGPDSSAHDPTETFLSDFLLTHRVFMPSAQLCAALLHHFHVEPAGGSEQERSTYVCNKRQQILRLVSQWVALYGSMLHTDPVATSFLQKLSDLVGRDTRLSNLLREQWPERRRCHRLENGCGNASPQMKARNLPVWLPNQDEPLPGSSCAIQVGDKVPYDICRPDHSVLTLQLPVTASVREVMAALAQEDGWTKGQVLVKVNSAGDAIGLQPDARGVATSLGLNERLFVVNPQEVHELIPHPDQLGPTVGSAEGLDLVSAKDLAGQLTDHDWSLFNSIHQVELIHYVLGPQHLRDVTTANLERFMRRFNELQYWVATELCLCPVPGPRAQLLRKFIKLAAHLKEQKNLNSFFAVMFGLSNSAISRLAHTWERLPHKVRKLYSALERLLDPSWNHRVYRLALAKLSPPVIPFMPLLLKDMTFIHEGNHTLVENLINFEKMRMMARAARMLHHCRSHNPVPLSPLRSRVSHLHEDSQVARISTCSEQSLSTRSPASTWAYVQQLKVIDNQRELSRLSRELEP

Compound | Potency [1] | activation [2] | Potency [2]
CC1(C(=O)NS(=O)(=O)c2ccc(F)cc2F)CCN1C(=O)C1(c2ccc(Cl)cc2)CCC1 (centres undefined) | active: 9.53 µM | inconclusive: 29.2% [activator] | –
COc1ccc(C2CC(=O)Oc3cc(OC)c(OC)c(OC)c32)cc1 (centres undefined) | inconclusive [inhibitor, partial curve, poor fit] | inactive: 20% [at 30.8 µM] | –
O=c1oc2ccccc2nc1/C=C(O)/C=C\c1ccccc1 | inactive | inactive: -0.436% [at 30.8 µM] | –
CCC(CO)n1c(SCc2cc([N+](=O)[O-])cc3c2OCOC3)nc2ccccc2c1=O (centres undefined) | inconclusive [inhibitor, partial curve] | – | inconclusive [activator, partial curve]
O=C(NCC(c1ccco1)N1CCCCC1)c1cccc(NS(=O)(=O)c2ccc(Br)cc2)c1 (centres undefined) | inconclusive [inhibitor, partial curve, poor fit] | inactive: 29.4% [at 30.8 µM] | –
COc1cc(C2NC(=O)c3c(sc4c3CCN(C)C4)N2)cc(Br)c1OC(=O)c1ccc(C)cc1 (centres undefined) | inconclusive [inhibitor, single point] | inconclusive: 73.7% [activator] | –
N#Cc1c(-c2ccccc2)nc(SCc2cccc(C(F)(F)F)c2)[nH]c1=O | active: 26.9 µM | – | inactive
O=C1/C(=C/c2ccc(O)c(O)c2)SC(=S)N1Nc1ccccc1 | active: 16.9 µM | – | inactive
CCCN1C(=O)c2ccccc2NC1c1ccc(Cl)c(Cl)c1 (centres undefined) | inconclusive [inhibitor, partial curve, poor fit] | inactive: 12.5% [at 30.8 µM] | –
CC(=O)Nc1cccc(NC(=O)CSc2nc(=O)n(CCN3CCOCC3)c3c2CCCC3)c1 | inactive | – | inconclusive [activator, full curve, poor fit]
COc1ccc(N=C2SC(C(=O)Nc3ccc(C(=O)O)cc3)CC(=O)N2Cc2cccs2)cc1 (centres undefined) | inconclusive [inhibitor, full curve, poor fit] | inactive: 7.24% [at 30.8 µM] | –
CC1=CCC[C@@H]2[C@@](C)(CC/C(C)=C/C(=O)O)[C@H](C)CC[C@@]12C | inconclusive [inhibitor, partial curve, poor fit] | inactive: 10.7% [at 30.8 µM] | –
COc1cccc(NS(=O)(=O)c2ccc3c(c2)C2C=CCC2C(c2ccc(C(=O)O)cc2)N3)c1 (centres undefined) | active: 9.53 µM | – | inactive
CCOc1cccc(C(=O)Nc2ccc3oc(Cc4ccc(Cl)cc4)nc3c2)c1 | inconclusive [inhibitor, full curve, poor fit] | inactive: 18.7% [at 30.8 µM] | –
COc1ccc(C2=NN(c3nc4ccccc4s3)C(=O)C2)cc1 | active: 75.7 µM | – | inconclusive [activator, partial curve, poor fit]
Cc1nc(Cl)sc1C(=O)NC(C)c1ccc(Cl)cc1 (centres undefined) | inactive | – | inconclusive [activator, partial curve, poor fit]
COC(=O)c1ccc2nc(-c3cccc(Br)c3)c(Cc3ccccc3)n2c1 | inconclusive [inhibitor, partial curve, poor fit] | – | inconclusive [activator, single point]
CN(C)CCNC(=O)c1cccc(-c2cnc3c(NC=O)cc(-c4cccc(C(F)(F)F)c4)cn23)c1 | inactive | – | inconclusive [activator, full curve, poor fit]
COc1ccc(N2CCN(S(=O)(=O)c3cc4c(cc3C)NC(=O)CO4)CC2)cc1 | inactive | inconclusive: 42.8% [activator] | –
COC(=O)c1c(SC)nc2ccccc2c1OCc1cccc(C)c1 | inactive | inconclusive: 42% [activator] | –
COc1cc(CNc2ccc(O)cc2)cc(Br)c1OCc1ccccc1F | inconclusive [inhibitor, full curve, poor fit] | – | inconclusive [activator, single point]
O=C(NCc1ccc2c(c1)CCN2C(=O)c1ccccc1)Nc1cccc(C(F)(F)F)c1 | inconclusive [inhibitor, partial curve, poor fit] | – | inconclusive [activator, partial curve]

— PubChem BioAssay (NCATS)
